Common to all, as to conditions: rank among the four antibodies huAbF46-H4-A1, -A2, -A3, -A5
For one assay, the system named is Akt phosphorylation. The assay is described as follows: Akt phosphorylation by the four affinity-matured antibodies. It is filed as cell-based. The source says:
(§1) In the antibody, the hinge region, or the constant region and the hinge region, were substituted.

Assay [1] addresses T1, c-Met (Homo sapiens, UniProt P08581). The assay is described as follows: c-Met degradation degree of the four affinity-matured antibodies. In kind it is cell-based.
Source text: as §1

In assay [2] the target is T1, c-Met. Nature of the assay: Affinity for c-Met of the four affinity-matured antibodies. In kind it is binding.
Source text: as §1

T1 sequence (P08581 25-1390): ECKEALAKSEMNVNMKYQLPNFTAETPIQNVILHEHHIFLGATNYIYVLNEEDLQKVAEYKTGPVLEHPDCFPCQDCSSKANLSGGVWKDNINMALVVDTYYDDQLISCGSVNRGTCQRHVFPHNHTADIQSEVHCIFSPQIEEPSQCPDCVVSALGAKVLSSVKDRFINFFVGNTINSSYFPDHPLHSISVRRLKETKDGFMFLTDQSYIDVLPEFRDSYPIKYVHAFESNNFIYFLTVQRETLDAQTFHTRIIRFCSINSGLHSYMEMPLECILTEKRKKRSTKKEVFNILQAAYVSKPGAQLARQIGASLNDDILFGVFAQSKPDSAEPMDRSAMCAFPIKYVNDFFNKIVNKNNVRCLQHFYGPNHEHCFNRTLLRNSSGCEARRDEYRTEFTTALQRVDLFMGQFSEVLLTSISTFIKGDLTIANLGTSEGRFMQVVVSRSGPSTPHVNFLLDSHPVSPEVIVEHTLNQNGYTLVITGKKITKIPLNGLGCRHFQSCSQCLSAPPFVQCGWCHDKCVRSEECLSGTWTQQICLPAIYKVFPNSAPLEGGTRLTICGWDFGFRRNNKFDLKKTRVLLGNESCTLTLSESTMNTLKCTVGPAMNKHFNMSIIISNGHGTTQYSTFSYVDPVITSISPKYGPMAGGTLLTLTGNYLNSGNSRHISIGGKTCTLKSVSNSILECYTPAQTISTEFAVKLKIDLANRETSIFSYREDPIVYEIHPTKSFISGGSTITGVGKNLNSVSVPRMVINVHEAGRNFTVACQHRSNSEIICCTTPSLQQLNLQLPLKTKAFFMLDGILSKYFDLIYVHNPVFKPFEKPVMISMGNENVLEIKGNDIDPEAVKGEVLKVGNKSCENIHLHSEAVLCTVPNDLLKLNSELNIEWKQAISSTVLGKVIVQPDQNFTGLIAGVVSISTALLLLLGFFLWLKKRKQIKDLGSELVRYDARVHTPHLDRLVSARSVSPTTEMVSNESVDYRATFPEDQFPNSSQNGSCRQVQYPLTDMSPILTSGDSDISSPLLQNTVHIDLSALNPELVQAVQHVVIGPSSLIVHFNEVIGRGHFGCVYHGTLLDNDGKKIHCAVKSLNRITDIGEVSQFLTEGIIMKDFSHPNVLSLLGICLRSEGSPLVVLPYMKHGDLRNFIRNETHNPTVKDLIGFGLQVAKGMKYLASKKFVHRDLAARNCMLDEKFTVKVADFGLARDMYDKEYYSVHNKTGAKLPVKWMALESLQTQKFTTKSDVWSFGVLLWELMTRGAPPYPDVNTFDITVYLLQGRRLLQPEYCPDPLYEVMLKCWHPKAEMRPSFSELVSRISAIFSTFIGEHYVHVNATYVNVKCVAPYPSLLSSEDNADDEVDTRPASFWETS

B1: huAbF46-H4-A1: affinity-matured humanized anti-c-Met antibody (L3-1 origin) (antibody)
heavy: EVQLVESGGGLVQPGGSLRLSCAASGFTFTDYYMSWVRQAPGKGLEWLGFIRNKANGYTTEYSASVKGRFTISRDNSKNTLYLQMNSLRAEDTAVYYCARDNWFAYWGQGTLVTVSSASTKGPSVFPLAPSSKSTSGGTAALGCLVKDYFPEPVTVSWNSGALTSGVHTFPAVLQSSGLYSLSSVVTVPSSSLGTQTYICNVNHKPSNTKVDKKVEPKSCDCH[human IgG1 Fc skipped]
light: DIQMTQSPSSLSASVGDRVTITCKSSQSLLASGNQNNYLAWHQQKPGKAPKMLIIWASTRVSGVPSRFSGSGSGTDFTLTISSLQPEDFATYYCQQSYSRPYTFGQGTKVEIKRTVAAPSVFIFPPSDEQLKSGTASVVCLLNNFYPREAKVQWKVDNALQSGNSQESVTEQDSKDSTYSLSSTLTLSKADYEKHKVYACEVTHQGLSSPVTKSFNRGEC
In the case of B1, in the assay with Akt phosphorylation, the Akt phosphorylation entry is listed as “lowest”. For the same molecule, in the assay with c-Met [1], the c-Met degradation degree result is recorded as “lowest”. Further, the “affinity for c-Met” value with c-Met [2] is recorded as “highest”.

The values are drawn from US9730926B2, “Combination therapy using bispecific anti-c-Met/anti-EGFR antibody and c-Src inhibitor” (Samsung Electronics Co., Ltd., priority 2014, dated 2017).
